46 molecules from the supplement of paper PMC11369174, “Proteome-scale characterisation of motif-based interactome rewiring by disease mutations” (Molecular Systems Biology, 2024) can be followed below.

Holding throughout (test): mutation enrichment score (mutant vs wild-type peptide binding to bait); baits are purified protein domains named by gene / domain / UniProt id / residues; peptides come from disordered regions of human proteins; higher = mutation enhances binding relative to wild type
For experiment [1], the target named is T1, PEX14_Pex14__O75381_16_84.
T1 chain: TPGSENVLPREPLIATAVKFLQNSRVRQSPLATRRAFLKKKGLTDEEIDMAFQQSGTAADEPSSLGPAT
The settings on record: wild-type window: ….

For experiment [2], the target named is PPIA_full-length__P62937_1_165, P62937. The conditions noted are these: wild-type window: ….
Sequence of PPIA_full-length__P62937_1_165, P62937 (P62937 whole entry, looked up): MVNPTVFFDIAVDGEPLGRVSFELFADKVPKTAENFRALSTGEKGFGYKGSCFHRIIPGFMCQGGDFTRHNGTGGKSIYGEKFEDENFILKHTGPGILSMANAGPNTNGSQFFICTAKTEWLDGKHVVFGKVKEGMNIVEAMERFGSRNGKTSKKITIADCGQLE
For experiment [3], the target named is PTBP1_RRM_2_P26599_157_285. The conditions noted are these: wild-type window: ….
For another experiment, the target named is T2, PIK3R1_SH3_1_P27986_6_78.
T2 chain: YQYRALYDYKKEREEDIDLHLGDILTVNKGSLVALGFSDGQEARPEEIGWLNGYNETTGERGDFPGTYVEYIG
The conditions noted are these: wild-type window: ….

For experiment [4], the target named is USP7_MATH-TRAF__Q93009_53_206. The settings on record: number of wild-type / mutant comparisons summed (bounds the score): 5; paper call: no_effect; wild-type window: ….
Sequence of USP7_MATH-TRAF__Q93009_53_206 (chain, as listed by the source): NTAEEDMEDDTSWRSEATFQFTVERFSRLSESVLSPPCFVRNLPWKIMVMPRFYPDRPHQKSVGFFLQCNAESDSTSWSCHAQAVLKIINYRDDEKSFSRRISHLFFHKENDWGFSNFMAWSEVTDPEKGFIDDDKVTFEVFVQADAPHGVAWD
The next experiment addresses T3, TLN2_PTB__Q9Y4G6_312_417.
T3 chain: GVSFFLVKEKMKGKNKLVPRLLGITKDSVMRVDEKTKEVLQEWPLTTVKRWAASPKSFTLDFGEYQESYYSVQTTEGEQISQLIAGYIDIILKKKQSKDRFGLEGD
The settings on record: number of wild-type / mutant comparisons summed (bounds the score): 6; paper call: no_effect; wild-type window: ….

The target of experiment [5] is T4, PTK2_Focal-AT__Q05397_891_1050.
T4 chain: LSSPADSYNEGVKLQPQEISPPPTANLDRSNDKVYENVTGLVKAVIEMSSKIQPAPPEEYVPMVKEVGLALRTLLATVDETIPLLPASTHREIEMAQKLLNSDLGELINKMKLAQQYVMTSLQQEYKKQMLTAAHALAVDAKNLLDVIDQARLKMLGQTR
The conditions noted are these: number of wild-type / mutant comparisons summed (bounds the score): 5; paper call: no_effect; wild-type window: ….

The mark [6] stands for this setting: number of wild-type / mutant comparisons summed (bounds the score): 12, paper call: no_effect.
The mark [7] stands for this setting: number of wild-type / mutant comparisons summed (bounds the score): 12, paper call: diminished.
[8] abbreviates: number of wild-type / mutant comparisons summed (bounds the score): 18, paper call: enhanced.
Setting [9] is: number of wild-type / mutant comparisons summed (bounds the score): 6, paper call: no_effect.
[10] abbreviates: number of wild-type / mutant comparisons summed (bounds the score): 12, paper call: enhanced.
Setting [11] is: number of wild-type / mutant comparisons summed (bounds the score): 18, paper call: diminished.
[12] abbreviates: number of wild-type / mutant comparisons summed (bounds the score): 6, paper call: diminished.

The list shows a part of the results. Single values of this set are uncertain.

As to EISSDDGFQICAESIEDAWKLLTDKVQEARSNARLKQLSFA [S3692L S3692L], the mutation enrichment score in experiment [1] (setting [6]) was 1. Turning to KVNTLSKELHSEFSEVMNEICASDQIRSAVLISSKPGCFIA [W80C W80C], the mutation enrichment score in experiment [1] (setting [7]) is -10. As for TIMEEKERAYTLEEEAVSVQWEEEYEEYEEYDYKEFEEYEP [R10668W R10668W], in experiment [1] (setting [8]), the mutation enrichment score is 7.

As to MGLVDQLVEPLGPGLKPPEEWTIEYLEEVAITFAKGLADKK [R235W R235W], the mutation enrichment score in experiment [1] (setting [6]) came out at 4. With LFLGLCDGFFITIMAPIAFEPVGPMQASQAIGYLLGMMALP [L438P L438P], the mutation enrichment score in experiment [2] (setting [9]) is -3. For the molecule AGPPPPPPPPHPHARIKLENSLDYGSAWAAAAAQCRYGDLA [P392S P392S], in experiment [1] (setting [6]), the mutation enrichment score is -3. Consider PGAPGSERILLDILEHDWREVQDSRQELCQKLHAVQGELQW [A328V A328V], for which the mutation enrichment score in experiment [1] (setting [6]) came out at 4. Regarding DEHGIDPSGNYVGDSDLQLEWISVYYNEASSHKYVPRAILV [R46W R46W], in experiment [1] (setting [10]), the mutation enrichment score came out at 10. Regarding LMEFRRDASMLNDELSHINAGLNMGILGSYDPQQIFKCKGT [R371G R371G], the mutation enrichment score in experiment [3] (setting [10]) worked out at 12. Regarding IDNGKQREFESRLADALQELWAQHEDQVEQYKKELEKTYSA [R249W R249W], in experiment [1] (setting [10]), the mutation enrichment score turned out to be 9.

As to VGASYEWQSRDTPILLEAPTSLAEGSSLHTPLALPPPQPPQ [G126S G126S], in experiment [3] (setting [9]), the mutation enrichment score was -0.58. Take RAVNKAGESEPSEPSDPVLCWEKLYPPSPPRWLEVINITKN [R15005W R15005W]: in the experiment with PIK3R1_SH3_1_P27986_6_78 (setting [11]), the mutation enrichment score was -9. Consider QNNNNRKTSNGDDSLFFSNFLLLGTPVLKDINFKIERGQLL [S434L S434L], for which, in experiment [3] (setting [12]), the mutation enrichment score is -6. Take KKLMIKQGLLDKHGKPTDSTLATWKQEYVDYSESAKKEVVA [P409L P409L]: the mutation enrichment score in experiment [1] (setting [6]) was 0.87.

As to ILSLLLGTAYSFYLFHPLAYEMVGPLAQDPQSPMAGLRWLD [G726E G726E], the mutation enrichment score in experiment [2] (setting [10]) was 8.5. Turning to VHHCTIHGNTEELRQMAASRKVPRPLSTLPMFNVHTGERLP [E352K E352K], in the experiment with PIK3R1_SH3_1_P27986_6_78 (number of wild-type / mutant comparisons summed (bounds the score): 27, paper call: diminished), the mutation enrichment score is -12.

EMGPKLQARETPSLPTPIPLKPKEEPKEAPAPEPQPGSQAQ [Q222K Q222K]: the mutation enrichment score with PIK3R1_SH3_1_P27986_6_78 (number of wild-type / mutant comparisons summed (bounds the score): 9, paper call: no_effect) is -2. As to PGSLGAPDAPSSPRPLGHFSGGGLLKLPEDALVKAESPEKP [V120G V120G], the mutation enrichment score in experiment [3] (setting [9]) was found to be 5.9. Consider LYPGIVTFVIASFTFPPGMGPFMAGELMPREAISTLFDNNT [Q412P Q412P], for which the mutation enrichment score in experiment [2] (setting [6]) came out at 4.

Turning to QYRQVASPRTDPYSAAQLHNEYGPMNMNMGMNMAAAAAHHH [Q213E Q213E], in experiment [2] (setting [8]), the mutation enrichment score stood at 5.3. For CPKISLTVAAKELSVSDTDVLEVSWTDNGTFNLSEGYTPQT [S309L S309L], in experiment [1] (setting [6]), the mutation enrichment score came to 3. Regarding PGLPGPVLPLNLAKNPLLPSLFGAGGLGLPVVSLLAGAAGG [P420L P420L], in experiment [3] (setting [12]), the mutation enrichment score is -6.

For EHDWREAQDSRQELCQKLHAMQGELQWAEELRDQYLQEMED [V342M V342M], in experiment [1] (setting [9]), the mutation enrichment score was -4.8. For LSPVRSPTPPAAGFQPLLNGRLVPVPPTTPAPGVQLDVEAL [S719R S719R], in the experiment with PIK3R1_SH3_1_P27986_6_78 (setting [8]), the mutation enrichment score is 13. In the case of LQQQNKRPRTRITDDQLRVLWQYFDINNSPSEEQIKEMADK [R2161W R2161W], the mutation enrichment score in experiment [1] (setting [9]) is 6. On to GNSIYIRPYITTPGGTTRQTKQHSGWVSQFNPMNPQQVYQP [Q230K Q230K], for which the mutation enrichment score in experiment [1] (setting [6]) was -3. For the molecule PPPEDSLMSLPLEESPLLPLHEEPQLCPRSEGPHLSPRPEE [P729H P729H], the mutation enrichment score in experiment [3] (setting [9]) was -4. As to SLCRARQRVEQEQLLASGSLLGSPDVEECAPNTGQCHLCLP [S321L S321L], the mutation enrichment score was 13 in experiment [3] (setting [8]) and -3 in experiment [4]. Take PNPETTGEEDEEEPEMPVGPHPRPLSELHLKEKAVPMPEAS [R858H R858H]: the mutation enrichment score in experiment [2] (setting [9]) was 2.

DKHGKPTDSTPATWKQEYVDNSESAKKEVVAEVVKAPQVVA [Y419N Y419N]: the mutation enrichment score in experiment [1] (setting [7]) was -9. Regarding PPGVAKPLFRSTQSLPTVDTLAQAAPQTYAEYAISQPLEGA [S52L S52L], in experiment [2] (setting [9]), the mutation enrichment score worked out at 1.5. Take GDQEPEAVLAMLRSLDLEGLWSTLAESSDHVEKSPQSLLQD [R785W R785W]: in experiment [1] (setting [8]), the mutation enrichment score was 8. As for QGFRLVPFLTELRAVMDWVWMDTTLSLSSWICVEDIYAHIF [T2356M T2356M], the figures for the mutation enrichment score (in experiment [1] (setting [9]); with TLN2_PTB__Q9Y4G6_312_417) were -0.48 and 3.7, respectively.

Regarding YHNEEDEEEDGGEEGMDEQYWQICNMYTMYSMMNVGQTAEK [R298W R298W], in experiment [1] (setting [6]), the mutation enrichment score was 3.

TILGVLNGLVLLPVLLSFFGQYPEVSPANGLNRLPTPSPEP [P1180Q P1180Q]: the mutation enrichment score in experiment [2] (setting [12]) was -6. Consider GGSGGGVPEQEDSVLFRRGTDQSDDSDIWDDTALIKAYDKA [G26D G26D], for which, in experiment [1] (setting [9]), the mutation enrichment score was -1. For KEFERLSSPLIVEIVRRKQQLPPRTPLDQPVDIGTSLIQDM [P635L P635L], in the experiment with PIK3R1_SH3_1_P27986_6_78 (number of wild-type / mutant comparisons summed (bounds the score): 9, paper call: enhanced), the mutation enrichment score came to 7. As for FRVSARNRVGTGEPVETDNPIEARSKYDVPGPPLNVTITDV [V14109I V14109I], the mutation enrichment score in experiment [2] (setting [6]) is -3.9. Take VAQDELVTFSEELANLYHHVWMCNNETPNRVMLDYYREGQG [C542W C542W]: the mutation enrichment score in experiment [1] (setting [10]) amounted to 6. On to LGWYMVKSGLEEKSDSHDIPWVSQYRLAAHLGSALVLYCAS [R217W R217W], for which the mutation enrichment score worked out at 8 in experiment [1] (setting [10]) and 14 in experiment [2] (setting [8]). Consider ERVENRRAFLKLRRQQQIERKLNGYMEWISKAEEVILAEDE [E388K E388K], for which the mutation enrichment score in experiment [5] was -5. In the case of SPGAAAVVKGLAGPAASYGPNTRVQSMALPPGVVNSYNGLG [Y258N Y258N], the mutation enrichment score in experiment [2] (setting [10]) amounted to 7.7. As for SYMFRPVVPASAPHPRPLQEEEMETYGAGTPLGSVASVHSP [V1951E V1951E], the mutation enrichment score in experiment [2] (setting [9]) was -0.43.

For the molecule QQMAEDKASVKAQVTSLLGERQESQSRLEAATKECQALEGR [L153R L153R], the mutation enrichment score in experiment [3] (setting [9]) stood at 2. As to YAPLLGVPPAVRPTPCAPLAKCKGSLLDDSAGKSTEDTAEY [E289K E289K], the mutation enrichment score in the experiment with PIK3R1_SH3_1_P27986_6_78 (setting [11]) was -13. On to RETGEKLLLATGLDGSYLLRYSESVPGVYCLCVLYHGYIYT [D33Y D33Y], for which, in experiment [3] (setting [9]), the mutation enrichment score is 3.
